Measurements published in the RNAGym collection of RNA variant scans (doi:10.1073/pnas.2313332121).
This sample is rich in variants without activity.

B1: TPR 5TU (parent)
chain: GGAUCUUCUCGAUCUAACAAAAAAGACAAAUCUGCCACAAAGCUUGAGAGCAUCUUCGGAUGCAGAGGCGGCAGCCUUCGGUGGCGCGAUAGCGCCAACGUUCUCAACUAUGACACGCAAAACGCGUGCUCCGUUGAAUGGAGUUUAUCAUG

Variants of: B1
Assay: polymerase ribozyme fitness, log enrichment relative to wild type (log ratio); higher = more active; in vitro selection for triplet polymerase activity
Procedure, shortened: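 Each subunit of a heterodimeric triplet polymerase ribozyme was represented by a PCR-built, transcribed mutant library that underwent triplicate single-round in vitro selection with frozen incubation at −7 °C. Extended constructs were recovered by gel excision, streptavidin-bead capture and RT-PCR, and Illumina sequencing of input and output libraries kept genotypes with ≥10 input reads and ≥1 read per output. Fitness is the logarithm of genotype enrichment relative to wild-type enrichment, from inverse-variance-weighted replicate averages, with a logarithm base of 2.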

Going from GGAUCUUCUCGAUCUAACAAAAAAGACAAAUCUGCCACAAAGCUUGAGAGCAUCUUCGGAUGCAGAGGCGGCAGCCUUCGGAGGCGCGAUAGCGCCAACGUUCUCAACUAUGACACGCAAAACGAGUGCUCCGUUGAAUGGAGUUUAUCAUG [U82A C125A] to GGAUCUUCUCGAUCUAACAAAAAAGACAAAUCUGCCACAAAGCUUGAGAGCAUCUUCGGAUGCAGAGGCGGCAGCCUUCGCUGGCGCGAUAACGCCAACGUUCUCAACUAUGACAGGCAAAACACGUGCUCCUUUGAAUGGAGUUUAUUAUG [G81C G92A C116G G124A G133U C149U], the “polymerase ribozyme fitness (log ratio)” value falls from -0.504 to no more than -4.2.

GGAUCUUCUCGAUCUAACAAAAAAGACAAAUCUGCCACAAAGCUUGAGAGCAUCUUCGGAUGCAGAGGCGGCAGCCUUCGGAGGCGCGAUAGCGCCAACGUUAUCAACUAUGACACGCAAAACGCGUGCUCCGUUGAAUGCAGUUUAUCAUG [U82A C103A G141C] and GGAUCUUCUCGAUCUAACAAAAAAGACAAAUCUGCCACAAAGCUUGAGAGCAUCUUCGGAUGCAGAGGCGGCAGCCUUCGUUGACGCGAUAGGGCCAACGUUCUCAACUAUGACACGCAAAACGCGUGCUCCGUUGAAUGGAGUUUAGCAUG [G81U G84A C93G U148G] cannot be ordered by “polymerase ribozyme fitness (log ratio)” value: no more than -4.2 for the first, no more than -4.2 for the second.

First: GGAUCUUCUCGAUCUAACAAAAAAGACAAAUCUGCCACAAAGCUUGAGAGCAUCUUCGGAUGCAGAGGCGGCAGCCUUCGGAGGCGCGAUAGCGCCAACGUUCUCAACUAUGACACGCACAACGCGUGCCCCGUUGAAUGGAUUUUAUCAUG [U82A A120C U130C G143U]
Second: GGAUCUUCUCGAUCUAACAAAAAAGACAAAUCUGCCACAAAGCUUGAGAGCAUCUUCGGAUGCAGAGGCGGCAGCCUUCGGAGGCGCGAUAGCGCCAACGUUCUCGACUAUGACACGCAAAAGGCGUGCUCCGUUGAAUGGAGUUUAGCAUG [U82A A106G C123G U148G]
The “polymerase ribozyme fitness (log ratio)” value of the first is higher: -2.44 for the first, -4.03 for the second.

GGAUCUUCUCGAUCUAACAAAAAAGACAAAUCUGCCACAAAGCUUGAGAGCAUCUUCGGAUGCAGAGGCGGCAGCCUUCGGAGGCGCGAUCGCGCCAACGUUCUCAACUAUGACCCGCAAAACGCGUGCUCCGUUGAGUGGAGUUUAUCAUG [U82A A91C A115C A138G] and GGAUCUUCUCGAUCUAACAAAAAAGACAAAUCUGCCACAAAGCUUGAGAGCAUCUUCGGAUGCAGAGGCGGCAGCCUUCGUUGGCGGGAUAGCGCCAACGUUCUCAACUAUGACACGCAAAACGCGUGCUCCGAUGAAUGGAGUUUAUCAUG [G81U C87G U134A] cannot be ordered by “polymerase ribozyme fitness (log ratio)” value: no more than -4.2 for the first, no more than -4.2 for the second.

Compared with GGAUCUUCUCGAUCUAACAAAAAAGACAAAUCUGCCACAAAGCUUGAGAGCAUCUUCGGAUGCAGAGGCGGCAGCCUUCGCUGGCGCGAUAGCGACAACGUUCUCAACUAUGACACGCAAAACGCGUGCUCCGAUGAAUGGAGCUUAUCAUG [G81C C95A U134A U144C], GGAUCUUCUCGAUCUAACAAAAAAGACAAAUCUGCCACAAAGCUUGAGAGCAUCUUCGGAUGCAGAGGCGGCAGCCUUCGUUGGCGCGAUAGCCCCAACGUUCUCAACUAUGACACGCAAAACGCGUGCUCCGUUGAAUGGAGAUUAUCAUG [G81U G94C U144A] is higher in “polymerase ribozyme fitness (log ratio)” value: -2.86 for the first, -0.944 for the second.

GGAUCUUCUCGAUCUAACAAAAAAGACAAAUCUGCCACAAAGCUUGAGAGCAUCUUCGGAUGCAGAGGCGGCAGCCUUCGCUGGCGCGAUAGAGCCAACGUUCUCAACUAUGACACGCAAAACGCGUGCUCCGUUGAAUGGAGUUUAACAUG [G81C C93A U148A] and GGAUCUUCUCGAUCUAACAAAAAAGACAAAUCUGCCACAAAGCUUGAGAGCAUCUUCGGAUGCAGAGGCGGCAGCCUUCGGAGGCGCGAUAGCGCCAACGUUGUCAACUAUGUCACGCAAAACGCGUGCUCCGUUGCAUGGAGUUUAACAUG [U82A C103G A113U A137C U148A] cannot be ordered by “polymerase ribozyme fitness (log ratio)” value: no more than -4.2 for the first, no more than -4.2 for the second.

GGAUCUUCUCGAUCUAACAAAAAAGACAAAUCUGCCACAAAGCUUGAGAGCAUCUUCGGAUGCAGAGGCGGCAGCCUUCGUGGGCGUGCUAGCGCCAACGUCCUCAACUAUGACACGUAAAACGCAUGCUCCGUUGAAUGGAAUUUAUCAGG [G81U U82G C87U A89C U102C C118U G126A G143A U151G] and GGAUCUUCUCGAUCUAACAAAAAAGACAAAUCUGCCACAAAGCUUGAGAGCAUCUUCGGAUGCAGAGGCGGCAGCCUUCGGAGGUGCGAUAGCGCCAACGUUCUCAACUAUGACACGCAAAACGCGUGCUCCGUUGGAUGGAGCUUAUCACG [U82A C85U A137G U144C U151C] cannot be ordered by “polymerase ribozyme fitness (log ratio)” value: no more than -4.2 for the first, no more than -4.2 for the second.

Compared with GGAUCUUCUCGAUCUAACAAAAAAGACAAAUCUGCCACAAAGCUUGAGAGCAUCUUCGGAUGCAGAGGCGGCAGCCUUCGGAGGCGCGAUAGGGCCAACGUUCUCAACUAUGACACGCAAAACGCGUGCUCCGUUGAAUGGAGUUUAUCAUG [U82A C93G], GGAUCUUCUCGAUCUAACAAAAAAGACAAAUCUGCCACAAAGCUUGAGAGCAUCUUCGGAUGCAGAGGCGGCAGCCUUCGCUGGCGCGAUAGCGCCAACGUUCUCAACUAUGACACACCAAACGCGUGCUCCGUUGAAUGGAGUUUAUCAUG [G81C G117A A119C] is higher in “polymerase ribozyme fitness (log ratio)” value: -3.41 for the first, 0.184 for the second.

First: GGAUCUUCUCGAUCUAACAAAAAAGACAAAUCUGCCACAAAGCUUGAGAGCAUCUUCGGAUGCAGAGGCGGCAGCCUUCGCUGGCGCGAUAGCGCCAACGUUCUCAACUAUGACACGCAAAACGCGUGCUCCGUUGAAAGGAGUUUAUCAUG [G81C U139A]
Second: GGAUCUUCUCGAUCUAACAAAAAAGACAAAUCUGCCACAAAGCUUGAGAGCAUCUUCGGAUGCAGAGGCGGCAGCCUUCGCUGGCGCGAUAGCGCCAACGUUCUCAACUAUGACACGCAAAACGCCUGCUCCGUUGAAUGGAGUCUAUCAUG [G81C G126C U145C]
The “polymerase ribozyme fitness (log ratio)” value of the first is lower: no more than -4.2 for the first, 0.873 for the second.

For GGAUCUUCUCGAUCUAACAAAAAAGACAAAUCUGCCACAAAGCUUGAGAGCAUCUUCGGAUGCAGAGGCGGCAGCCUUCGCUGGCGCGAUAGCGCCAACGUUCUCAACUAUGACACGCAAAACGCCUGCUCCGUUGAAUGGAGUUUAUCAUG [G81C G126C], the “polymerase ribozyme fitness (log ratio)” value was 0.723.
